According to the supplement of paper PMC12067230:
Single values of this set are uncertain.

assay: amyloid nucleation score relative to library mode (yeast Sup35 reporter selection) (log enrichment difference); higher = more amyloid nucleation; sequences are the first 22 residues of the Bri2 peptide extended by up to 12 random residues; settings: random library (experiment): 1;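 active = nucleation score significantly above 0 at FDR 0.05; inactive = not significantly above 0 or absent from output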
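Note: [psi-pin-] Saccharomyces cerevisiae expressing SupN fusions, induced by 100 µM Cu2SO4, selected 7 d at 30 °C without adenine and uracil, scored by deep sequencing of output versus input.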

Sequence | amyloid nucleation score
EASNCFAIRHFENKFAVETLICFVKSSETGVMGC | inactive
EASNCFAIRHFENKFAVETLICFVLFSRLLGRLQ | inactive
EASNCFAIRHFENKFAVETLICFVLLCITKLRSW | inactive
EASNCFAIRHFENKFAVETLICFVLLRLMNRAPN | inactive
EASNCFAIRHFENKFAVETLICFVLPHCINKNRC | inactive
EASNCFAIRHFENKFAVETLICFVLSWGRTYWIT | 0.539
EASNCFAIRHFENKFAVETLICFVLVTGIRRVRS | 0.498
EASNCFAIRHFENKFAVETLICFVMIVKVLPVSE | inactive
EASNCFAIRHFENKFAVETLICFVNSDSRRYLA | inactive
EASNCFAIRHFENKFAVETLICFVNVSRNHVFHD | 5.46
EASNCFAIRHFENKFAVETLICFVNWCSEQVWRR | inactive
EASNCFAIRHFENKFAVETLICFVQFDMHSHTCG | 4.46
EASNCFAIRHFENKFAVETLICFVQSSLEMSSGS | 7.49
EASNCFAIRHFENKFAVETLICFVQWQKHKIVSR | inactive
EASNCFAIRHFENKFAVETLICFVRAHGCVWQEG | inactive
EASNCFAIRHFENKFAVETLICFVRVVTVRHIWF | inactive
EASNCFAIRHFENKFAVETLICFVSA | inactive
EASNCFAIRHFENKFAVETLICFVSSENNHWMTL | 3.35
EASNCFAIRHFENKFAVETLICFVSTSNKKLHHW | inactive
EASNCFAIRHFENKFAVETLICFVTLEQVAYFVH | inactive
EASNCFAIRHFENKFAVETLICFVVI | 5.11
EASNCFAIRHFENKFAVETLICFVVQE | 6.52
EASNCFAIRHFENKFAVETLICFVVRPIRMDMVR | inactive

Sequence | amyloid nucleation score
EASNCFAIRHFENKFAVETLICFVVVVKGYCWRE | inactive
EASNCFAIRHFENKFAVETLICFVWGVRSTVVGK | 4.66
EASNCFAIRHFENKFAVETLICFVYNDAMTELQE | 5.52
EASNCFAIRHFENKFAVETLICFW | 7.74
EASNCFAIRHFENKFAVETLICFWCFGVRVGRDS | 6.21
EASNCFAIRHFENKFAVETLICFWCRHYVVFE | inactive
EASNCFAIRHFENKFAVETLICFWFCGIEGEKWG | -0.0572
EASNCFAIRHFENKFAVETLICFWMCNFIGNGFP | 1.14
EASNCFAIRHFENKFAVETLICFWMIGLASWNAE | inactive
EASNCFAIRHFENKFAVETLICFWPFNVCDKYPD | 6.92
EASNCFAIRHFENKFAVETLICFWRSGRTKYVLE | inactive
EASNCFAIRHFENKFAVETLICFWTTNVNAMDAW | 0.294
EASNCFAIRHFENKFAVETLICFYFCGAMQDRDH | 6.8
EASNCFAIRHFENKFAVETLICFYG | 6.64
EASNCFAIRHFENKFAVETLICFYGMSSLRDAPI | inactive
EASNCFAIRHFENKFAVETLICFYKATLQAVESP | inactive
EASNCFAIRHFENKFAVETLICFYMATLAATVR | inactive
EASNCFAIRHFENKFAVETLICFYMSS | 5.64
EASNCFAIRHFENKFAVETLICFYMVSDVGMRQR | inactive
EASNCFAIRHFENKFAVETLICFYPFQ | 6.46
EASNCFAIRHFENKFAVETLICFYRTDPRAVGHT | inactive
EASNCFAIRHFENKFAVETLICFYSMAKRHVKRL | inactive
EASNCFAIRHFENKFAVETLICFYSSSPLGRGIC | inactive

same assay, conditions: random library (experiment): 2

Sequence | amyloid nucleation score
EASNCFAIRHFENKFAVETLICFVGWTSFDSVHP | inactive
EASNCFAIRHFENKFAVETLICFVHFIKWCGF | inactive
EASNCFAIRHFENKFAVETLICFVIDNIWLSSVR | inactive
EASNCFAIRHFENKFAVETLICFVILNMRFVWYV | inactive
EASNCFAIRHFENKFAVETLICFVIYFGESQSMG | 3.33
EASNCFAIRHFENKFAVETLICFVLCL | 5.59
EASNCFAIRHFENKFAVETLICFVLFIWDTSWPR | inactive
EASNCFAIRHFENKFAVETLICFVLICNI | 4.24
EASNCFAIRHFENKFAVETLICFVLMYRWLMAEV | inactive
EASNCFAIRHFENKFAVETLICFVLTSHLYWSGM | inactive
EASNCFAIRHFENKFAVETLICFVLVHHRVPFDG | inactive
EASNCFAIRHFENKFAVETLICFVLYN | 4.21
EASNCFAIRHFENKFAVETLICFVQRTYSVIYLP | -0.122
EASNCFAIRHFENKFAVETLICFVRT | inactive
EASNCFAIRHFENKFAVETLICFVRTDLAQRGRK | 6.05
EASNCFAIRHFENKFAVETLICFVST | 5.22
EASNCFAIRHFENKFAVETLICFVSVMCSNDTLR | inactive
EASNCFAIRHFENKFAVETLICFVTKRILCRWS | inactive
EASNCFAIRHFENKFAVETLICFVTSLCYWELK | inactive
EASNCFAIRHFENKFAVETLICFVV | inactive
EASNCFAIRHFENKFAVETLICFVVPMNWTWIIT | 2.46
EASNCFAIRHFENKFAVETLICFVVSTALETGVL | inactive
EASNCFAIRHFENKFAVETLICFVWAYDF | 3.96

Sequence | amyloid nucleation score
EASNCFAIRHFENKFAVETLICFVYDLMSGDSLV | inactive
EASNCFAIRHFENKFAVETLICFVYLFLRFRLVS | inactive
EASNCFAIRHFENKFAVETLICFVYLSPFRLGSY | inactive
EASNCFAIRHFENKFAVETLICFWFKQ | 3.75
EASNCFAIRHFENKFAVETLICFWFVFN | 1.95
EASNCFAIRHFENKFAVETLICFWNLYEIEGCCC | inactive
EASNCFAIRHFENKFAVETLICFWQ | 6.21
EASNCFAIRHFENKFAVETLICFWSAILLTLICE | -0.0862
EASNCFAIRHFENKFAVETLICFY | 0.248
EASNCFAIRHFENKFAVETLICFYCLFLWISRTW | inactive
EASNCFAIRHFENKFAVETLICFYFLGECLYYVY | inactive
EASNCFAIRHFENKFAVETLICFYIVPSYFWYSC | inactive
EASNCFAIRHFENKFAVETLICFYIYARVWESDH | 1.63
EASNCFAIRHFENKFAVETLICFYKNMFSEWF | 0.391
EASNCFAIRHFENKFAVETLICFYLKSTFPDPGP | 3.29
EASNCFAIRHFENKFAVETLICFYLML | inactive
EASNCFAIRHFENKFAVETLICFYLYSDQ | 6.17
EASNCFAIRHFENKFAVETLICFYMFS | 5.76
EASNCFAIRHFENKFAVETLICFYN | 5.18
EASNCFAIRHFENKFAVETLICFYNSLFSCGDCW | 6.85
EASNCFAIRHFENKFAVETLICFYRPQGTLVDLG | inactive
EASNCFAIRHFENKFAVETLICFYSRSRNGFWFL | inactive

same assay, conditions: random library (experiment): 3

Sequence | amyloid nucleation score
EASNCFAIRHFENKFAVETLICFVHHFIG | inactive
EASNCFAIRHFENKFAVETLICFVHRPCFRSVVS | 3.74
EASNCFAIRHFENKFAVETLICFVIDP | 6.06
EASNCFAIRHFENKFAVETLICFVIFLLCMLMPM | inactive
EASNCFAIRHFENKFAVETLICFVIPVLDSRQ | 8.24
EASNCFAIRHFENKFAVETLICFVLSPMWRIGGR | 4.46
EASNCFAIRHFENKFAVETLICFVLWVGWELQRE | inactive
EASNCFAIRHFENKFAVETLICFVMLMNRGWKPY | 5.59
EASNCFAIRHFENKFAVETLICFVRKCWMVDCTR | inactive
EASNCFAIRHFENKFAVETLICFVRTLVGSLSVA | inactive
EASNCFAIRHFENKFAVETLICFVRWVGMYVDTW | inactive
EASNCFAIRHFENKFAVETLICFVVLFRIHPYWV | inactive
EASNCFAIRHFENKFAVETLICFVVLISTRYSVR | inactive
EASNCFAIRHFENKFAVETLICFVYFFMCLNHSH | inactive
EASNCFAIRHFENKFAVETLICFVYLGC | 3.57
EASNCFAIRHFENKFAVETLICFVYPHMTSTCPR | 6.02
EASNCFAIRHFENKFAVETLICFWCCARNPTVTF | 9.34
EASNCFAIRHFENKFAVETLICFWCHRMHWREWV | inactive
EASNCFAIRHFENKFAVETLICFWKYLRVLGYGN | inactive
EASNCFAIRHFENKFAVETLICFWLFLAFEDLW | inactive
EASNCFAIRHFENKFAVETLICFWSCIIWGECCC | inactive
EASNCFAIRHFENKFAVETLICFWSLETDSCCF | inactive
EASNCFAIRHFENKFAVETLICFWYAQSLFWRWH | inactive
EASNCFAIRHFENKFAVETLICFWYIY | 0.582
EASNCFAIRHFENKFAVETLICFYGLSVKRAEHQ | -0.111
EASNCFAIRHFENKFAVETLICFYLFPICYSLYR | inactive
EASNCFAIRHFENKFAVETLICFYLS | 4.87
EASNCFAIRHFENKFAVETLICFYRHCMKDHLMP | inactive
EASNCFAIRHFENKFAVETLICFYSFCLGVKEQG | inactive
